# Data published in US7592316B2, “Peptides as NS3-serine protease inhibitors of hepatitis C virus” (Schering Corporation, priority 2000, dated 2009).
# Biological target: HCV NS3/NS4A protease (strain 1a) (Hepatitis C virus genotype 1a, UniProt P27958)
# Test: biochemical
# Settings: Table 5; HCV NS3/NS4A protease, spectrophotometric assay, 30° C., pH 6.5; read-out: Ki* Range
row,SMILES,Ki [nM]
1,C=CCNC(=O)C(=O)C(CC1CC1)NC(=O)[C@@H]1[C@H]2[C@@H](CN1C(=O)[C@@H](NC(=O)OC(C)(C)C)C1CCCC1)C2(C)C (stereo partly shown),> 1000
2,C=CCNC(=O)C(=O)C(CCC)NC(=O)[C@@H]1C[C@@H](CCC(C)C)CN1C(=O)[C@@H](NC(=O)OC(C)(C)C)C(C)(C)C (stereo partly shown),> 1000
3,CCCC(NC(=O)[C@@H]1CC(C)(C)CN1C(=O)[C@@H](NC(=O)OC(C)(C)C)C(C)(C)C)C(=O)C(=O)NCCc1ccccc1 (stereo partly shown),> 1000
4,CC(C)COC(=O)N[C@H](C(=O)N1C[C@H]2[C@@H]([C@H]1C(=O)NC(CC1CC1)C(=O)C(N)=O)C2(C)C)C1CCCCC1 (stereo partly shown),101 to 1000
5,CC1(C)[C@H]2[C@@H](C(=O)NC(CC3CCC3)C(=O)C(N)=O)N(C(=O)[C@@H](NC(=O)OC34CC5CC(CC(C5)C3)C4)C3CCCCC3)C[C@H]21 (stereo partly shown),1 to 100
6,CC(C)(C)[C@H](NC(=O)NC1CC1)C(=O)N1C[C@H]2[C@@H]([C@H]1C(=O)NC(CC1CC1)C(=O)C(N)=O)C2(C)C (stereo partly shown),101 to 1000
7,C=CCNC(=O)C(=O)C(CC#CC)NC(=O)[C@@H]1[C@H]2[C@@H](CN1C(=O)[C@@H](NC(=O)OC(C)(C)C)C(C)(C)C)C2(C)C (stereo partly shown),> 1000
8,"CCC[C@@H](NC(=O)[C@@H]1[C@@H]2[C@H](CN1C(=O)[C@@H](NC(=O)OC(C)C(C)C)C(C)(C)C)C2(C)C)C(=O)C(=O)NCC(=O)N[C@H](C(=O)N(C)C)c1ccccc1 (stereo partly drawn) (X18-[Tle][Pro(3R,4S-CMe2)][X19]G[Phg]-NMe2)",1 to 100
9,CC(NC(=O)N[C@H](C(=O)N1C[C@@H]2[C@H]([C@H]1C(=O)NC(CC1CCC1)C(=O)C(N)=O)C2(Cl)Cl)C1CCCCC1)C(C)(C)C (stereo partly shown),1 to 100
10,C=CCCC(NC(=O)[C@@H]1[C@@H]2[C@H](CN1C(=O)[C@@H](OC(=O)NC(C)(C)C)C1CCCCC1)C2(C)C)C(=O)C(=O)NCC=C (stereo partly shown),> 1000
11,CC(C)(C)OC(=O)N[C@H](C(=O)N1C[C@H]2[C@@H]([C@H]1C(=O)NC(CC1CC1)C(=O)C(=O)O)C2(C)C)C1CCC(F)(F)CC1 (stereo partly shown),101 to 1000

# Continued, values first:
row,Ki [nM],SMILES
1,> 1000,C=CCCC(NC(=O)[C@@H]1[C@H]2[C@@H](CN1C(=O)[C@@H](N)C1CCCCC1)C2(C)C)C(=O)C(=O)NCC=C (stereo partly shown)
2,1 to 100,CC(C)NC(=O)N[C@H](C(=O)N1C[C@@H]2[C@H]([C@H]1C(=O)NC(CC1CC1)C(=O)C(N)=O)C2(C)C)C1Cc2ccccc2C1 (stereo partly shown)
3,> 1000,CC(C)(C)OC(=O)N[C@H](C(=O)N1C[C@@H]2[C@H]([C@H]1C(=O)NC(CC1CCCCC1)C(=O)C(N)=O)C2(C)C)C(C)(C)C (stereo partly shown)
4,> 1000,COC(=O)C(=O)C(CC1CC1)NC(=O)[C@@H]1[C@@H]2[C@H](CN1C(=O)[C@@H](NC(=O)OC(C)C)C1Cc3ccccc3C1)C2(C)C (stereo partly shown)
5,> 1000,C=CCNC(=O)C(=O)C(CCC)NC(=O)[C@@H]1CC(F)(F)CN1C(=O)[C@@H](NC(=O)OC(C)(C)C)C(C)(C)C (stereo partly shown)
6,> 1000,C=CCCC(NC(=O)[C@@H]1[C@@H]2[C@H](CN1C(=O)C(NC(=O)OC(C)(C)C)C1C=CCCC1)C2(C)C)C(=O)C(=O)NCC=C (stereo partly shown) [drawing 1861]

# Same assay, conditions: Table 6; HCV NS3/NS4A protease, 30° C., pH 6.5; read-out: Ki*
row,SMILES,Ki [nM]
1,Cc1ccc(S(=O)(=O)CNC(=O)C(=O)C(CC2CC2)NC(=O)[C@@H]2[C@@H]3[C@H](CN2C(=O)[C@@H](NC(=O)OC(C)(C)C)C(C)(C)C)C3(C)C)cc1 (stereo partly shown),101 to 1000
2,CC(C)(C)[C@H](NC(=O)OC(C)(C)C(F)(F)F)C(=O)N1C[C@H]2[C@@H]([C@H]1C(=O)NC(CC1CCC1)C(=O)C(N)=O)C2(Cl)Cl (stereo partly shown),1 to 100
3,CC(C)(C)OC(=O)N[C@H](C(=O)N1C[C@@H]2CC(F)(F)C[C@@H]2[C@H]1C(=O)NC(CC1CCC1)C(=O)C(N)=O)C1CCCCC1 (stereo partly shown),101 to 1000
4,CCC1(NC(=O)N[C@H](C(=O)N2C[C@H]3[C@@H]([C@H]2C(=O)NC(CC2CC2)C(=O)C(N)=O)C3(C)C)C2CCCCC2)CCCCC1 (stereo partly shown),1 to 100
5,CC(C)(C)[C@H](NC(=O)NC(C)(C)C(F)(F)F)C(=O)N1C[C@H]2[C@@H]([C@H]1C(=O)NC(CC1CCC1)C(=O)C(N)=O)C2(C)C (stereo partly shown),1 to 100
6,CC1(C)C2[C@@H](C(=O)NC(CC3CCC3)C(=O)C(N)=O)N(C(=O)[C@@H](NC(=O)[C@@H]3CSC(=O)N3)C3CCCCC3)C[C@@H]21 (stereo partly shown),1 to 100

# Second part, the compound after the results:
row,Ki [nM],SMILES
1,1 to 100,CC1(NC(=O)N[C@H](C(=O)N2C[C@H]3[C@@H]([C@H]2C(=O)NC(CC2CC2)C(=O)C(N)=O)C3(C)C)C(C)(C)C)CCCCC1 (stereo partly shown)
2,101 to 1000,CCC(F)(F)CC(NC(=O)[C@@H]1[C@@H]2[C@H](CN1C(=O)[C@@H](NC(=O)NC(C)(C)C)C(C)(C)C)C2(C)C)C(=O)C(=O)O (stereo partly shown)

# *1 amine or outer side, *2 acyl side, *3 side chain or, on linkers, in order; H or OH if unused. Where a SMILES comes first, the peptide text is derived from it. [ ]: non-standard residue; d: D form. The star is where a group is joined. Pro(3R,4S-CMe2) = CC1(C)[C@@H]2[C@@H](C(=O)O)NC[C@@H]21; X19 = CCC[C@@H](N[*:1])C(=O)C(=O)[*:2]; Phg = N[C@H](C(=O)O)c1ccccc1; Tle = CC(C)(C)[C@H](N)C(=O)O; X18 = CC(C)C(C)OC(=O)*
